# Data taken from the supplement of paper PMC12645437, “Orthogonal IMiD-Degron Pairs Induce Selective Protein Degradation in Cells” (ACS Chemical Biology, 2025).
# Some of the results follow.
# Target: no compound (DMSO)
# Experiment: log2 fold change of degron read counts, EGFP-low vs EGFP+ sorted cells; higher = lower degron-EGFP level without compound (poor expression or instability)
# Conditions: compound: DMSO control; 18 h
# 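Further: jurkat cells carrying a lentiviral library of mutant zinc finger degrons fused to EGFP plus mCherry, mCherry+ cells FACS sorted, degron abundance counted by next-generation sequencing.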
row,Sequence,log2 fold change of degron read counts
1,FVCNQCGACFTQKGNLLRHIKL,-1.24
2,FNCNQCGRTFTQKGNLLRHIKL,-0.483
3,FNCDVCGADFTQKGNLLRHIKL,-1.49
4,LWCEICGFRCTQKGNLLRHIKL,1.34
5,FYCDICGAHFTQKGNLLRHIKL,-0.467
6,FDCPVCGAIFTQKGNLLRHIKL,0.277
7,FTCNQCGRSFTQKGNLLRHIKL,-0.834
8,FRCPICGAWFTQKGNLLRHIKL,0.851
9,FQCEVCGAIFTQKGNLLRHIKL,-1.75
10,FWCEQCGAGFTQKGNLLRHIKL,-0.428
11,FECNQCGHVFTQKGNLLRHIKL,-1.2
12,FQCNQCGAGFTQKGNLLRHIKL,-1.09
13,FVCEICGRIFTQKGNLLRHIKL,-0.428
14,FCCPQCGANFTQKGNLLRHIKL,-0.181
15,FMCPQCGACFTQKGNLLRHIKL,0.164
16,FTCSVCGHWFTQKGNLLRHIKL,-0.0063
17,FQCPQCGACFTQKGNLLRHIKL,-0.564
18,FHCEICGRIFTQKGNLLRHIKL,-0.445
19,FHCPICGHGFTQKGNLLRHIKL,0.00505
20,LNCPICGFMCTQKGNLLRHIKL,1.07
21,FSCPVCGANFTQKGNLLRHIKL,-0.362
22,FHCEICGHAFTQKGNLLRHIKL,-1.46
23,LNCPICGFWCTQKGNLLRHIKL,1.74
24,FYCNQCGALFTQKGNLLRHIKL,-0.313
25,FRCDICGAMFTQKGNLLRHIKL,-1.15

row,Sequence,log2 fold change of degron read counts
1,LWCNQCGFHCTQKGNLLRHIKL,2.2
2,FDCEICGAYFTQKGNLLRHIKL,-0.576
3,FECPVCGANFTQKGNLLRHIKL,-0.772
4,FHCDICGAPFTQKGNLLRHIKL,-0.96
5,FDCEVCGADFTQKGNLLRHIKL,-1.18
6,FLCEQCGAHFTQKGNLLRHIKL,-1.54
7,FHCEICGRKFTQKGNLLRHIKL,-2.08
8,FSCDICGAYFTQKGNLLRHIKL,-1.02
9,FRCDQCGASFTQKGNLLRHIKL,-2.21
10,FSCSVCGHYFTQKGNLLRHIKL,0.256
11,FGCNVCGARFTQKGNLLRHIKL,-0.826
12,FDCNQCGACFTQKGNLLRHIKL,0.149
13,FSCPICGRIFTQKGNLLRHIKL,0.275
14,LVCEICGFRCTQKGNLLRHIKL,-0.388
15,FTCNQCGRDFTQKGNLLRHIKL,-1.32
16,FGCEVCGAQFTQKGNLLRHIKL,-1.23
17,FNCPICGRKFTQKGNLLRHIKL,-1.29
18,FICEQCGADFTQKGNLLRHIKL,-1.99
19,FACPICGASFTQKGNLLRHIKL,-0.276
20,LCCEICGFNCTQKGNLLRHIKL,-0.152
21,FKCNQCGHQFTQKGNLLRHIKL,-0.961
22,FLCPICGRAFTQKGNLLRHIKL,0.124
23,FQCDVCGAWFTQKGNLLRHIKL,-0.696
24,FVCDICGAMFTQKGNLLRHIKL,-2.25
25,FGCNQCGHEFTQKGNLLRHIKL,-0.359
